Assay [1] has as its target nucleolin (endogenous NCL) (mouse (endogenous in RAW 264.7)) (UniProt P09405). In words: co-IP; RAW 264.7 cells stimulated with LPS; lysed with 1% digitonin; protein G-Sepharose, washed with 0.1% digitonin; immunoblot.
The target is the same in assay [2]. Briefly: co-IP; unstimulated RAW 264.7 cells (no LPS); lysed with 1% digitonin; protein G-Sepharose; immunoblot. On the technique in general: In western blotting, separated proteins are transferred to a membrane and probed.
Assay [3] shares this target. In words: co-IP; unstimulated RAW 264.7 cells (no LPS); lysed with 1% NP-40; protein G-Sepharose; immunoblot.
The target is the same in assay [4]. In words: co-IP; RAW 264.7 cells stimulated with LPS for 12 h; lysed with 1% NP-40; protein G-Sepharose, washed with 0.1% NP-40; immunoblot.
Assay [5] shares this target. In words: co-IP; RAW 264.7 cells stimulated with LPS for 12 h in the presence of okadaic acid (OA, 20 nM); lysed with 1% NP-40; immunoblot.

Protein sequences, listed by entry. Tags and fused reporters are not part of them.
UniProt P09405: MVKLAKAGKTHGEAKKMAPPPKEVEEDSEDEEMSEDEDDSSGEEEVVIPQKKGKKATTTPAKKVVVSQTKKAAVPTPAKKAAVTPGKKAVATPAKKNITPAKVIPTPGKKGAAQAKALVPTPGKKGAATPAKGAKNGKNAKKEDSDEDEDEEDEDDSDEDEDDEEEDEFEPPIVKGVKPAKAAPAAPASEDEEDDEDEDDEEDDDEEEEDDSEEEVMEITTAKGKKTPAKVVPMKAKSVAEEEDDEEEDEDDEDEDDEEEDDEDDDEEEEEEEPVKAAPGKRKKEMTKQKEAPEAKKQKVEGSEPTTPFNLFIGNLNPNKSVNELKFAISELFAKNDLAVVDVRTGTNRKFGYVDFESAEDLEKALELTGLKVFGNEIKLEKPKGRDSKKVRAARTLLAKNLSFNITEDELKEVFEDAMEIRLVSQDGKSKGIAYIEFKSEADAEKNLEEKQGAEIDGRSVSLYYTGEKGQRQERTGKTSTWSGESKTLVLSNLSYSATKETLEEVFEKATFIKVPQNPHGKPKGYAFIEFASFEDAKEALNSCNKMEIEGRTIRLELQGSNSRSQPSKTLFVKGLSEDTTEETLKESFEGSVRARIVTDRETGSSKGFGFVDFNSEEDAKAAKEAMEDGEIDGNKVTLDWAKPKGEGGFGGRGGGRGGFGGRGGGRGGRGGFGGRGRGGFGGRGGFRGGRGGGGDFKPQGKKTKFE
UniProt Q9D753: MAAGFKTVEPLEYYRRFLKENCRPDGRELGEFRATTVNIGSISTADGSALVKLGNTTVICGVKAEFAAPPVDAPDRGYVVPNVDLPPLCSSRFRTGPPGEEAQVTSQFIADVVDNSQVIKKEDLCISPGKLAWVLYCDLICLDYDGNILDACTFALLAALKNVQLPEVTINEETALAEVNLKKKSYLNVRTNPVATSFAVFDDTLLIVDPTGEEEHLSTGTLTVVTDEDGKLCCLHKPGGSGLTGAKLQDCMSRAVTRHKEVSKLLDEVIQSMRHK
UniProt Q9CRA8: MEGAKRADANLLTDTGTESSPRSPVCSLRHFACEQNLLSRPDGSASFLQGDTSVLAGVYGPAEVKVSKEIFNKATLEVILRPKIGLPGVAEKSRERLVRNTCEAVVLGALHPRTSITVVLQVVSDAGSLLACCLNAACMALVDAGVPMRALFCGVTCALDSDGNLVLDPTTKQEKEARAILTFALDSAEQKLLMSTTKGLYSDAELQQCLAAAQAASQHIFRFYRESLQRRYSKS

These are yes or no findings as the source states them, for the method shown. In cells and extracts the contact can be indirect. Some binding calls cover weakened binding; strength is not graded here.

As for “Rrp43, core exosome component (from UniProt Q9D753 1-276)”, the binding result in assay [1] is given as “binds”; in assay [2], “no binding (condition: unstimulated cells (without LPS))”.
Take “Rrp46, core exosome component (from UniProt Q9CRA8 1-235)”: the results for the binding entry in assay [1] and in assay [2] were “binds” and “no binding (condition: unstimulated cells (without LPS))”, respectively.

B1: Rrp6, nucleus-specific exosome component (protein, UniProt P56960 1-887)
chain: MAPPSPREHQSAPATSATKPDAEMVLPGFPDADSFVKFALGSVVAVTKASGGLPQFGDEYDFYRSFPAFQAFCETQGDRLLQCMSRVMQYHGCRSNIKDRSKVTELEDKFDLLVDTNDVILERVGMLLDEASGVNKHQQPVLPAGLQVPKTIVSSWNRKAGEYGKKAKSETFRLLHAKNIVRPQLRFREKIDNSNTPFLPKIFVKPNARKPLPLALSKERRERPQDRPEDLDVPPALADFIHQQRTQQVEQDMFAHPYQYELDHFTPPQSVLQRPKPQLYRAVGETPCHLVSSLDELVELNEKLLGCQEFAVDLEHHSYRSFLGLTCLMQISTRTEDFIVDTLELRSDMYILNESLTDPAIVKVFHGADSDIEWLQKDFGLYVVNMFDTHQAARLLNLARHSLDHLLRLYCGVESNKQYQLADWRIRPLPEEMLSYARDDTHYLLYIYDRMRLELWERGNHQPVQLQVVWQRSRDICLKKFVKPIFTDESYLELYRKQKKHLNSQQLTAFQLLFAWRDKTARREDESYGYVLPNHMMLKIAEELPKEPQGIIACCNPVPPLVRQQINEMHLLIQQAREMPLLKSENAAGVRKSGPLPSAERLENDLFGPHDCSHAPPDNYQNTSTDGTLPLQKQPSLFTEGKEETSVDAGCLLATAVITLFSEPNTEEGGKTPLTVAQKKAQNIMQSFENPFRMFLPSLEHKAHISQAAKFDPSSKIYEISNRWKLASQVQVQKEPKEATKKKVAEQTAAREEAKEEAAAGVLEQAIPVRQQAALENATKKRERATSDLRTIEQKQEKKRLKSSKKAKDPDPPGKDFSPYDYSQSDFRAFAGDSKSKPSSQFDPNKLAPSGKKGVGAKKCKQSVGNKSMSFAVGKSDRGFRHNWPKR
In the case of B1, the binding result in assay [3] was “no binding (condition: unstimulated cells (without LPS))”; in assay [4], “binds”; in assay [5], “binds weakly”.

The values are drawn from paper PMC9440930.
